Source: the supplement of paper PMC8277577
Numbering of substitutions follows the chain as printed. Recombinant human monoclonal antibodies (heavy:light variable regions). ELISA EC50 on the named antigen, from 10 µg/ml down; lower = stronger. No active / inactive call.

B1: C946 (protein)
chain 1: QVQLVQSGAEVKKPGASVKVSCKASGYTFTNYYIHWVRQAPGQGLEWMGIINPDGDSTSYVQKFQGRVTMTRDTSTSTVYMELSSLRSEDTAVYYCARDLVFVPATSAMDVWGKGTTVTVSS
chain 2: EIVLTQSPATLSLSPGERATLSCRASQSVSSYLAWYQQKPGQAPRLLIYDASNRATGIPARFSGSGSGTDFTLTISSLEPEDFAVYYCQQRSNWLFTFGPGTKVDIK
B2: C947 (protein)
chain 1: QVQLQESGPGLVRPSGTLSLTCAVTGGSISSSDCWSWVRQPPGKGLEWIGEICHGRTSNYNPSLKSPVSISVDKSKNQFSLILSSVTAADKAVYYCARSSRFLPPLPDAFDLWGQGTMVTVSS
chain 2: QSVLTQPPSVSGAPGQRVTISCTGSSSNIGAGYDVHWYKQLPGTAPKLLIYGNTNRPSGVPGRFSGSKSGTSASLAITGLQAEDEADYFCQSYDTRLSVVFGGGTKLT
B3: C948 (protein)
chain 1: EVQLVESGGGLVQPGGSLRLSCAASGFTFSRYDMHWVRQATGKGLEWVSIIGTAGDTYYPGSVKGRFTISRDNAKNSLFLQMNSLRAGDTAVYYCARANYDSSGYHNWFDPWGQGTLVTVSS
chain 2: DIQMTQSPSSLSASIGDRVTITCRASQNINSYLNWYQQKPGKAPKLLIYAASSLQSGVPSRFSGSGSGTDFTLTINSLQPEDFATYYCQQSYSMPSWTFGQGTKVEI
B4: C949 (protein)
chain 1: QVQLQESGPGLVKPLQTLSLTCTVSGGSISNGDYYWSWIRQSPGKGLEWIGNIFYSGATYFNPSLKSRVTLSVDTSKNQFSLKLSSVTAADTAVYYCARVVRVLPAASVDCWGQGTLVTVSS
chain 2: QSALTQPRSVSGSPGQSVPISCTGTSSDVGGYDYVSWYQQHPGKAPKLIIYDVSERPSGVPDRFSGSKSGNTASLTISGLQAEDEATYYCCSYAGTSVMFGGGTKLTVL
B5: C951 (protein)
chain 1: QVQLQESGPRLVKPSGTLSLTCAVSGGSISTTNWWSWVRQPPGKGLEWIGEIHHSGNTNYNPSLKSRVTISVDRSKNQFSLKLSSVTAADTAVYFCARDGGRPGDPFDIWGQGTMVTVSS
chain 2: QSALTQPASVSGSPGQSITISCTGTSSDVGGYNYVSWYQQHPGKAPNLMIYDVSDRPSGVSNRFSGSKSGNTASLTISGLQAEDEADYYCNSFTSNSTRVFGTGTKVTV
B6: C1025 (protein)
chain 1: EVQLVESGGGLVQPGRSLRLSCAASGFTFDDYAMHWVRQVPGKGLEWVSGVSWNGDSVGYADSMEGRFTISRDNAKNSLYLQMNSLRTEDTALYYCAKGVDYSSSSNFDFWGQGTLVTVSS
chain 2: DIQMTQSPSSVSASVGDRVTITCRASQGISSWLAWYQQKPGKAPKLLISLASSLQSGVPSRFSGSGSETDFTLIISSLQPEDFATYYCQQSSSFPLTFGGGTKVEIK
B7: C1026 (protein)
chain 1: QVQLVESGGGVVQPGKSLRLSCAASGFIFSSYSMHWVRQAPGKGLEWVAVVSNDGSGKFYADSVRGRFTIFRDNSKNTLYLQVSSLRAEDTAVYYCARDALTSISVLFDCWGQGTLVTVSS
chain 2: DIQMTQSPSSLSASLGDRVTITCRASQSISNYLNWYQQKPGKAPKLLIYGASSLQSGVPSRFSGSGSGTDFTLTISNLQPEDFATYFCQQSYSTPSVTFGGGTKVEIK
B8: C851 (protein)
chain 1: QLQLQESGPGLVKTSETLSLTCTVSGGSISSGNSYWGWIRQPPGKGLEWIGDIYYSGSTFYNPSLKSRLTISVDTSKNQFSLKLTSVTAADTAVYYCARRGGRTPVRFNYGGDVWGQGTTVTVSS
chain 2: DIQMTQSPSSLSASVGDRVTITCQASQDISRYLNWFQHKPGKAPKLLIYDASNLEAGVPSRFTGSGSGTEFTFTISSLQPEDFAIYFCQQYDSLPLTFGGGTKVEI
B9: C1027 (protein)
chain 1: EVQLVESGGGLVQPGGSLRLSCAASGFIVTTNYMSWVRQAPGKGLEWVSLIYPGGSTFYADSVEGRFTISRDNSKNTLYLQVNSLRVEDTAVYYCARDTFGRGDDHWGQGTLVTVSS
chain 2: DIQMTQSPSSLSASVGDRVTITCQASQDINIYLNWYQQRPGKAPKLLIYDASNLQTGVPSRFSGSGSGTDFTITISSLQPEDIATYYCQQYDNLPRSFGQGTKLEI
B10: C1028 (protein)
chain 1: QVQLVESGGGVVQPGRSLRLSCADSGFTFSSSGMHWVRQAPGKGLEWVGVISYDGGNKYYADSVKGRFTISRDNSKNTLYLQMNSLRAEDTAVYYCAKDTPGGDDIMTGWGLYGMDVWGQGTTVTVSS
chain 2: DIQMTQSPSSLSASVEDRVTITCRASQSISSYLNWYQQKPGKAPKLLIYAAISLQSGVPSRFSGSGSGTEFTLTISSLQPEDFATYYCQQSYTTPWAFGQGTKVEIK
B11: C1030 (protein)
chain 1: EVQLVESGGGLVQPGGSLRLSCEASGVIVSSNYMNWVRQAPGKGPEWVSVLYAGGSTFYADSVKGRFTISRDDSKNTLFLQMNNLRAEDTAVYFCARDLIAFGMDVWGQGTTVTVSS
chain 2: DIQLTQSPSFLSASVGDRVTITCRASQGINSDLAWYQQKPGKAPKLLIYGASTLQSGVPSRFSGSGSGTEFSLTVSSLQPEDFATYYCQQLNSYRRFGGGTKVEIK
B12: C1031 (protein)
chain 1: QLQLQESGPGLVKPSETLSLTCTVSGGSINTSTYYWGWIRQPPGKGLEWIGNIYYSGITYYNPSLKSRVTISVDTSKNQFSLKLRSVTAADTAVYYCARQHRFGSGSSELLWGQGTLVTVSS
chain 2: QSALTQPPSASGSPGQSVTISCTGTSSDVGSYNYVSWYQQHPGKAPKLMIYEVTKRPSGVPDRFSGSKSGNTASLTVSGLQADDEADYYCSSYAGSSNLVFGGGTKLTV
B13: C1032 (protein)
chain 1: EVQLVESGGSLVKPGGSLRLSCVASGLTFNHAWMSWVRQAPGKGLEWVGRIKSKIDGGTTDYAAPVKGRFTISRDDSKSTQYLQMNSLKTEDTAVYYCTTDCFWRLGGTTCYEHDAFDVWGQGTMVTVS
chain 2: DIQMTQSPSSLSASVGDRVTITCRASQAIATFLNWYQQKPGKAPKLLIYAASSLQSGVPSRFSGSGSGTDFTLTISSLQPEDFATYYCQQSYNSLHFGGGTKVEIK
B14: C1033 (protein)
chain 1: QVQLVQSGAEVKKPGSSVKVSCKASGGTFSRNVISWVRQAPGQGLEWMGGIIPMFGTANYAQKFQGRVTISADESTSTAYMELSSLRSEDTAVYYCAREDFILESAPIRENSYYYYGMDVWGQGTTVTVSS
chain 2: EIVLTQSPGTLSLSPGERATLSCRASQSVSSNYLAWYQQKPGQAPRLLIYDASSRATGIPDRFSGSGSGTDFTLTIRRLEPEDFAVYYCQQYGGSPRTFGQGTKVEIK
B15: C1034 (protein)
chain 1: QLQLQESGPGLVKPSETLSLTCTVSGGSVSSNNHYWGWIRQPPGKGLEWIGSISSSGSTHHNPSLRSRVTISVDTSKNHFSLKLNSVTATDTAVYYCARVDSSGWYTGDVFDVWGQGTMVTVSS
chain 2: DIQMTQSPSSLSASVGDRVTITCRASQTINNYLNWYQQKPGKPPKLLIYAAFSLHSGVPSRFSGSRSGTDFTLTISSLQPEDFATYYCQHSYSTMCSFGQGTKLEIK
B16: C1035 (protein)
chain 1: EVQLVESGGGLIQPGGSLRLSCAASGLTVSRNYMNWVRQAPGKGLEWVSVMYSGGSTFYADSVKGRFTISRDNSKNTLYLQMNSLRAEDTAVYYCARESYGMDVWGQGTTVTVSS
chain 2: B14 chain 2 with V29F, N32T, D51G, R77S, G93V, G94T, R97W
B17: C1036 (protein)
chain 1: B16 chain 1 with T28I, A40V, S53A, N73D, A87P
chain 2: B14 chain 2 with V29I, N32T, D51G, R77S, G93V, G94T, R97W
B18: C852 (protein)
chain 1: QVQLVQSGAEVKKPGASVKVSCKASGYIFTGFYMHWVRQAPGQGPEWMGWINPNSGGTNYAQKFQGRVTMTRDTSISTAYMELSRLRSDDTALYYCARGGQDELTGTFDVWGQGTMVTVSS
chain 2: SYELTQPPSVSLAPGKTASITCGGDSIGSKSVHWYQQRPGQAPILVIYYDGDRPSGIPERFSGSNSGNTATLTISRVEAGDEADYYCQVWDGGWVFGGGTKLTVL
B19: C1038 (protein)
chain 1: QVQLVQSGAEVKKPGASVKVSCKASGYTFTSYYMHWVRQAPGQGLEWMGIINPSGGSTRYAQKFQGRVTMTRDTSTSTVYMELSSLRSEDTAVYYCAREGVGGTSYFDYWGQGTLVTVSS
chain 2: SYELTQPPSVSVAPGKTARITCGGNNIGSKSVHWYQQKPGQAPVLVVYDDSDRPSGIPERFSGSNSGNTATLTISRVEAGDEADYYCQVWDSSSDPYVFGTGTKVTVL

Biological target: SARS-CoV-2 Wuhan-Hu-1 spike receptor-binding domain
Assay: ELISA binding EC50; higher = weaker binding; ELISA of recombinant human antibody on coated antigen, from 10 µg/ml in fourfold dilutions; four-parameter fit.

Binder | ELISA binding EC50 [ng/mL]
B1 | 3.82
B2 | 2.08
B3 | 3.26
B4 | 2.33
B5 | 0.81
B6 | 2.51
B7 | 2.5
B8 | 2.83
B9 | 2.42
B10 | 3.58
B11 | 2.78
B12 | 7.23
B13 | 2.89
B14 | 3.63
B15 | 2.77
B16 | 2.05
B17 | 1.02
B18 | 4.59
B19 | 2.46
